Experimental data as given in patent US12221481B2, “CD19 binding molecules and uses thereof” (Novartis AG, priority 2019, dated 2025).
Marks after values point to notes of the source that are not given here.

Key:
[1] = tested on: OCI-LY-19 diffuse large B-cell lymphoma (DLBCL) tumor; experiment: OCI-LY-19 DLBCL subcutaneous tumor model, human PBMC adoptive transfer, NSG mice (Example 28); conditions: for Δ Body weight from initial (Mean ± SEM) / Δ Tumor burden from initial (Mean) Day 25 / ΔT/ΔC / Regression: single dose IV; for ΔT/ΔC / Regression: Table 26, Day 25
[2] = tested on: OCI-LY-19 DLBCL subcutaneous tumor; experiment: OCI-LY-19 DLBCL subcutaneous tumor model in huCD34+ NSG mice, single dose, dose range finding (Example 30); conditions: for ΔT/ΔC: Day 24
Oci-Ly19 target cells = experiment: RTCC against Oci-Ly19 (Example 22); type: cell-based, human; conditions: E:T 1:1, 48 hour
Method: (§1) The purified TBMs were compared across multiple donor effector cells. Briefly, huCD19-expressing Nalm6 and Karpas422 target cells were engineered to overexpress firefly luciferase. Cells were harvested and resuspendend in RPMI medium (Invitrogen #11875-093) with 10% FBS. 5,000 target cells per well were plated in a flat-bottom 384-well plate. Human pan T effector cells were isolated via negative selection (Stemcell Technologies #17951) from two donors from cryopreserved PBMCs that were separated from a leukopak (Hemacare #PB001F-1) by Ficoll density gradient centrifugation. Purified T cells were then added to the plate to obtain a final E:T ratio of 3:1, 1:1, 1:3 or 1:5. Co-cultured cells were incubated with serial dilutions of all constructs and controls. For normalization, average maximum luminescence refers to target cells co-incubated with effector cells, but without any test construct. After an incubation of 48, 72 or 96 hr at 37° C., 5% CO2, OneGlo luciferase substrate (Promega #E6120) was added to the plate. Luminescence was measured on an Envision plate reader after a 10 minute incubation. Percent specific lysis was calculated using the following equation: Specific lysis (%)=(1−(sample luminescence/average maximum luminescence))*100
(§2) Nalm6 KO was generated from Nalm6 parental cell line by using CRISPR-CAS9 technology and was confirmed to lack hCD19 expression. Oci-Ly19, Toledo, Nalm6, Nalm6 KO and K562 target cells were engineered to overexpress firefly luciferase. RTCC assays were performed with the different cells lines according to the Materials and Methods described in Example 9, but with a final E:T ratio of 1:1 and a 48 hour incubation.

Toledo target cells = experiment: RTCC against Toledo (Example 22); type: cell-based, human; conditions: E:T 1:1, 48 hour
Method: as §1, §2

B1: CD3med TSP1: NEG258-based TBM with CD3med anti-CD3 scFv and CD58 IgV CD2-binding arm (antibody)
heavy: QVQLVQSGAEVKKPGASVKVSCKASGYTFTTYWIQWVRQAPGQRLEWMGAVYPGDADTRYTQKFQGRVTLTADRSASTAYMELSSLRSEDTAVYYCGRDAGLEYYALDYWGQGTLVTVSSASTKGPSVFPLAPSSKSTSGGTAALGCLVKDYFPEPVTVSWNSGALTSGVHTFPAVLQSSGLYSLSSVVTVPSSSLGTQTYICNVNHKPSNTKVDKRVEPKSCGGGGSGGGGSEVQLVESGGGLVQPGGSLKLSCAASGFTFNTYAMNWVRQASGKGLEWVGRIRSKYNNYATYYADSVKDRFTISRDDSKNTAYLQMNSLKTEDTAVYYCVRHGNFGNSYVSWFAHWGQGTLVTVSSGGGGSGGGGSGGGGSGGGGSQAVVTQEPSLTVSPGGTVTLTCGSSTGAVTSSNYANWVQQKPGQAPRGLIGGTNKRAPWTPARFSGSLLGGKAALTLSGAQPEDEAEYYCALWYSNLWVFGGGTKLTVLGGGGSDKTHTCPPCPAPELLGGPSVFLFPPKPKDTLMISRTPEVTCVVVAVSHEDPEVKFNWYVDGVEVHNAKTKPREEQYASTYRVVSVLTVLHQDWLNGKEYKCKVSNKALAAPIEKTISKAKGQPREPQVCTLPPSREEMTKNQVSLSCAVKGFYPSDIAVEWESNGQPENNYKTTPPVLDSDGSFFLVSKLTVDKSRWQQGNVFSCSVMHEALHNHYTQKSLSLSPGK
light: EIVMTQSPATLSVSPGERATLSCRASQDVGTAVAWYQQKPGQAPRLLIYWASTRHTGIPARFSGSGSGTEFTLTISSLQSEDFAVYFCQQYANFPLYTFGQGTKLEIKRTVAAPSVFIFPPSDEQLKSGTASVVCLLNNFYPREAKVQWKVDNALQSGNSQESVTEQDSKDSTYSLSSTLTLSKADYEKHKVYACEVTHQGLSSPVTKSFNRGEC
chain: SQQIYGVVYGNVTFHVPSNVPLKEVLWKKQKDKVAELENSEFRAFSSFKNRVYLDTVSGSLTIYNLTSSDEDEYEMESPNITDTMKFFLYVLESGGGGSDKTHTCPPCPAPELLGGPSVFLFPPKPKDTLMISRTPEVTCVVVAVSHEDPEVKFNWYVDGVEVHNAKTKPREEQYASTYRVVSVLTVLHQDWLNGKEYKCKVSNKALAAPIEKTISKAKGQPREPQVYTLPPCREEMTKNQVSLWCLVKGFYPSDIAVEWESNGQPENNYKTTPPVLDSDGSFFLYSKLTVDKSRWQQGNVFSCSVMHEALHNHYTQKSLSLSPGK
anti-tumor activity ([1]; 0.003 mg/kg, single IV administration): not active | Δ Body weight from initial (Mean ± SEM) ([1]; 0.003 mg/kg): 4.2 ± 2.1% | Δ Tumor burden from initial (Mean) Day 25 ([1]; 0.003 mg/kg): 372.94 mm^3 | anti-tumor activity ([1]; 0.01 mg/kg, single IV administration): not active | Δ Body weight from initial (Mean ± SEM) ([1]; 0.01 mg/kg): 5.7 ± 2.7% | Δ Tumor burden from initial (Mean) Day 25 ([1]; 0.01 mg/kg): 469.6988 mm^3 | % ΔT/ΔC ([1]; 0.03 mg/kg, single IV administration): 7.39% | Δ Body weight from initial (Mean ± SEM) ([1]; 0.03 mg/kg): 2.6 ± 1.6% | Δ Tumor burden from initial (Mean) Day 25 ([1]; 0.03 mg/kg): 60.7375 mm^3 | tumor regression ([1]; 0.1 mg/kg, single IV administration): 5.60% | Δ Body weight from initial (Mean ± SEM) ([1]; 0.1 mg/kg): 3.3 ± 2.0% | Δ Tumor burden from initial (Mean) Day 25 ([1]; 0.1 mg/kg): −12.1488 mm^3 | tumor regression ([1]; 0.3 mg/kg, single IV administration): 36.33% | Δ Body weight from initial (Mean ± SEM) ([1]; 0.3 mg/kg): 3.54 ± 1.4% | Δ Tumor burden from initial (Mean) Day 25 ([1]; 0.3 mg/kg): −78.7388 mm^3 | ΔT/ΔC ([1]; 0.003 mg/kg): 45.36% | ΔT/ΔC ([1]; 0.01 mg/kg): 57.13% | ΔT/ΔC ([1]; 0.03 mg/kg): 7.39% | Regression ([1]; 0.1 mg/kg): 5.60* % | Regression ([1]; 0.3 mg/kg): 36.33* % | antibody associated body weight loss ([1]; single IV administration, 0.003-0.3 mg/kg): no antibody associated body weight loss | ΔT/ΔC ([2]; 0.01 mg/kg, single IV dose): 100% | Δ Body weight from initial (Mean ± SEM) Day 24 ([2]; 0.01 mg/kg, single dose IV): 12.7 ± 1.8% | Δ Tumor burden from initial (Mean ± SEM) Day 24 ([2]; 0.01 mg/kg, single dose IV): 1139.3 ± 155.7 mm^3 | ΔT/ΔC ([2]; 0.01 mg/kg, single dose IV): 100% | ΔT/ΔC ([2]; 0.03 mg/kg, single IV dose): 90.3% | Δ Body weight from initial (Mean ± SEM) Day 24 ([2]; 0.03 mg/kg, single dose IV): 4.8 ± 3.7% | Δ Tumor burden from initial (Mean ± SEM) Day 24 ([2]; 0.03 mg/kg, single dose IV): 954.8 ± 180.1 mm^3 | ΔT/ΔC ([2]; 0.03 mg/kg, single dose IV): 90.3% | ΔT/ΔC ([2]; 0.1 mg/kg, single IV dose): 79.8% | Δ Body weight from initial (Mean ± SEM) Day 24 ([2]; 0.1 mg/kg, single dose IV): 0.3 ± 2.5% | Δ Tumor burden from initial (Mean ± SEM) Day 24 ([2]; 0.1 mg/kg, single dose IV): 843.2 ± 196.5 mm^3 | ΔT/ΔC ([2]; 0.1 mg/kg, single dose IV): 79.8% | ΔT/ΔC ([2]; 0.3 mg/kg, single IV dose): 26.9% | Δ Body weight from initial (Mean ± SEM) Day 24 ([2]; 0.3 mg/kg, single dose IV): −3.0 ± 2.2% | Δ Tumor burden from initial (Mean ± SEM) Day 24 ([2]; 0.3 mg/kg, single dose IV): 284.0 ± 200.9 mm^3 | ΔT/ΔC ([2]; 0.3 mg/kg, single dose IV): 26.9% | ΔT/ΔC ([2]; 1.0 mg/kg, single IV dose): 0.05% | Δ Body weight from initial (Mean ± SEM) Day 24 ([2]; 1.0 mg/kg, single dose IV): 3.1 ± 2.5% | Δ Tumor burden from initial (Mean ± SEM) Day 24 ([2]; 1.0 mg/kg, single dose IV): 35.5 ± 57.6 mm^3 | ΔT/ΔC ([2]; 1.0 mg/kg, single dose IV): 0.05* % | treatment associated body weight loss ([2]; across multiple dose levels, single IV dose): treatment associated body weight loss | cytotoxic activity (specific lysis) (Oci-Ly19 target cells): showed cytotoxic activity | cytotoxic activity (specific lysis) (Toledo target cells): showed cytotoxic activity
